Results from paper PMC12136788.
This is one part of the list.

T1: UNK ZnF1-3 (human, UniProt Q9C0B0 31-174)
T1 sequence: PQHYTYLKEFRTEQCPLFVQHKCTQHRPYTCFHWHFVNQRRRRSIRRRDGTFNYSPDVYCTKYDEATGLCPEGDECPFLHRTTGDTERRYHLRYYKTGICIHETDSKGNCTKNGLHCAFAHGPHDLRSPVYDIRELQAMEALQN

B1: chr9:45776876:45776877:-_ENSMUSG00000003131_ENSMUST00000172450|mus_mus|FALSE|FALSE (ssRNA)
RNA: GGGAGUUCUACAGUCCGACGAUCGAUCAGUUCAUGGAGGGGUUUGCAGAUCUUUGCAUAGCCCCCUCCUGUGAGAUGAAGAAAAUCAAACAUGUCGUGGCAGGAGAUGGCACCGUCCGAGUGCACGAAGCCCCCGUCUAUAUCCAACAGAGGAUUGAGCAUCA
B2: chr5:132424205:132424206:+_ENSG00000170606_ENST00000304858|hu_hu|FALSE|FALSE (ssRNA)
RNA: GGGAGUUCUACAGUCCGACGAUCGAUGGCACACUGCAAUGCACAGCCUCGAGUGACAGCUUCAUCAGCAUUUAAUGUUGUACUAAGUUCUUUACCGAAAAAUUUGCUGAUCUUCUCUUUUACCGCAGGGAUUCGUGUAGCACCCAACAGAGGAUUGAGCAUCA
B3: 25290430_25290550_1042_CDS_ENSMUSG00000026944_ENSMUST00000102919|mouse|control|control (ssRNA)
RNA: GGGAGUUCUACAGUCCGACGAUCCAGCAGGGCAAGGGCUGAUAGGACAUCCACAUCCUGCAGAAGUUUCUGGGCAUCCAGCAGGUCCCCUAAGAGUGCCGGCAGGCUCUGUGGGGACGGUGCCUGUGGCUGGGGAUCUGAGCCCAACAGAGGAUUGAGCAUCA
B4: chr15:42481402:42481403:-_ENSG00000166887_ENST00000318006|hu_mus|motif|central (ssRNA)
RNA: GGGAGUUCUACAGUCCGACGAUCCUUUGAGACUGUAGUGAUUUGUUGAAAUGUCAGUAAGUCAUGGACAUAAAUGUUGUUUUCGGACAAGCUGACCAGAAUCUUAAACUGGGAAACCACAUGGAUCUGCUGGAUCUUUUUGGACAACAGAGGAUUGAGCAUCA
B5: 20240214_20245657_251_3pUTR_ENSMUSG00000001924_ENSMUST00000001989|mouse|control|control (ssRNA)
RNA: GGGAGUUCUACAGUCCGACGAUCGACUGUGCAGGGGAGCAGUUAGAACCCGGCUUUGGAUCAGGCCCGGACACGCGACGUUUCUUGGACAGCGGCGAGCUGGACAUCAAUGCCGGUUCCCCGGGUCGUGCCGCCGCCAACUCCCAACAGAGGAUUGAGCAUCA
B6: chr12:103220247:103220248:+_ENSMUSG00000041781_ENSMUST00000047357|mus_hu|FALSE|FALSE (ssRNA)
RNA: GGGAGUUCUACAGUCCGACGAUCCAGGGAAUCAAUAAUAUCCAUAGAAAAGUGCUCAUCCCAGCCACAGUCCAAUAAAAAUCUAAACUCAUCAACUUGGAGAAGAUAGCAAAGGGCAGAUUCUUCUUGGACCCCAGAAAGGGUCAACAGAGGAUUGAGCAUCA
B7: chr1:82725849:82725850:+_ENSMUSG00000026150_ENSMUST00000078332|mus_hu|FALSE|FALSE (ssRNA)
RNA: GGGAGUUCUACAGUCCGACGAUCGGACCCUCAUUCGCUGACUAAUGCCUUCAGUAUAUUCCAUUUCGUACUGAAUUCGACUAAUUUCUGCCAUCUCAGCAGCAGUGGGAGAAGGAAAUGCUGCCCUGCUCACCAAAUGUGUAACAACAGAGGAUUGAGCAUCA
B8: chr1:225977404:225977405:+_ENSG00000143742_ENST00000304786|hu_hu|motif|central (ssRNA)
RNA: GGGAGUUCUACAGUCCGACGAUCAAUACAUGGAUCUGACAAAAUGGUUACAUUUAAUGUUCUUUUAAAGAAAGAUGAACGGAAUUUAAGAAGAAUUGGUUUUUCCUAAUAUCUCAUUUUCAAAUUACUGAUACAAAUUUGCCACAACAGAGGAUUGAGCAUCA
B9: chrX:135579806:135579807:+_ENSG00000102241_ENST00000218364|hu_hu|FALSE|FALSE (ssRNA)
RNA: GGGAGUUCUACAGUCCGACGAUCCCAAGUUGGUGCCGCUCAUGUUUCCUACCUAGCUCAGGAGCAGGGUUCAGAAGAACUAAGAGGCCGAAAUGACGCUGGAGCUGAGCAGAGAAAGGGAGGUCAACCGCGCUCUGCUCGCGCCAACAGAGGAUUGAGCAUCA
B10: 80078447_80078756_806_CDS_ENSMUSG00000022412_ENSMUST00000023048|mouse|control|control (ssRNA)
RNA: GGGAGUUCUACAGUCCGACGAUCCUGCAGGGACAUGCGGAGUCGUGACUUCUUCAAGUCUACCUGGCCCCUCCUGGCCAAUGGUUUGGGCCGGGGUGGGCAGAAUGUAUCUGUGUCAAAGGCAGAAGAGUCUGUGGGAAGGGUCAACAGAGGAUUGAGCAUCA
B11: 98488212_98488546_5419_CDS_ENSMUSG00000079487_ENSMUST00000087948|mouse|control|control (ssRNA)
RNA: GGGAGUUCUACAGUCCGACGAUCUGCAUGGUGUAGAAGGUCUGGAGGCACUGUCACACCAUAGGGGCCACUCCGACCUGGCCCCAUGCCAUAGUCCUCGUUCUUGGUGGCUGGCUGGCUGCGUUUUUUGCCCUUGGUAGACUUCAACAGAGGAUUGAGCAUCA
B12: chr9:95013113:95013114:-_ENSG00000196305_ENST00000443024|hu_hu|hu_hu_hu_mus_False|28_98 (ssRNA)
RNA: GGGAGUUCUACAGUCCGACGAUCCUCAGUCAGAAAGGGUGUGUAGGGGGCCAUCAGUCUGCACAGAGAAAGCAGGACACUGAACAGUGUCUCCAGAGCCAUGACACAAUCCUCCAUCCCACUCUCACCCUUUAACCUCCUCCUCAACAGAGGAUUGAGCAUCA
B13: 37126873_37304194_710_3pUTR_ENSG00000147905_ENST00000336755|human|control|control (ssRNA)
RNA: GGGAGUUCUACAGUCCGACGAUCCUAUCUGGGCCUCAAUGUCUUUGUCACUGAUGGACCAGUUUAUACCAUCUUCUCCUUCAGUAACAGAGUUUUCACAUCCCACAAGGUUGAGAAGGAUAUCAUCAUCUUUAUCAUCUACUUCAACAGAGGAUUGAGCAUCA
B14: chrX:17854524:17854525:+_ENSMUSG00000037369_ENSMUST00000044484|mus_hu|FALSE|FALSE (ssRNA)
RNA: GGGAGUUCUACAGUCCGACGAUCUCGUGAAUUACUCUCAUUAGUGACAAAAAGCAGAUCAAAAACCUCCACUUCACAAAUGCUACAGUAAUGAGCUGGUUCUUCUUUUGUCCGCCCAUGCCAUAUAAUCUCUUUUCCUGCAGCCAACAGAGGAUUGAGCAUCA

Target: T1, UNK ZnF1-3
Test: nsRBNS (natural sequence RNA bind-n-seq); RBNS binding buffer (assumed for nsRBNS): 25 mM Tris pH 7.5, 150 mM KCl, 3 mM MgCl2, 0.01% Triton X-100, 500 ug/ml BSA, 20 U/ml SUPERase-In, 4 C; UNK is unkempt and MSI1 is Musashi-1; names of the RNAs are library labels; protein concentration not given here; high values mean tight binding

| Binder | binding signal |
| --- | --- |
| B1 | 0.848 enrichment R |
| B2 | 1.11 enrichment R |
| B3 | 1.09 enrichment R |
| B4 | 0.58 enrichment R |
| B5 | 0.685 enrichment R |
| B6 | 1.6 enrichment R |
| B7 | 0.934 enrichment R |
| B8 | 0.592 enrichment R |
| B9 | 1.09 enrichment R |
| B10 | 0.925 enrichment R |
| B11 | 0.916 enrichment R |
| B12 | 1.2 enrichment R |
| B13 | 0.748 enrichment R |
| B14 | 0.725 enrichment R |
